# The whole screen tested about 330,000 compounds, of which about 300 (0.091%) were called active. Inconclusive means that the source gave no clear call. Such entries were picked first, then a sample of the others. Calls come from the whole dose curve; as a rule, active = well fitted inhibition curve with a large enough effect; inconclusive = small, poorly fitted or top-dose-only effect, or effect the other way, or another doubt; inactive = no such curve, though single readings can be large or run the other way. No potency is given beside an inconclusive call; the fits are too rough.
# Biological target: Lysosomal acid glucosylceramidase (Homo sapiens) (UniProt P04062)
# Experiment: qHTS Assay for Inhibitors and Activators of N370S glucocerebrosidase as a Potential Chaperone Treatment of Gaucher Disease
# Details: N370S GC spleen homogenate, 4MU-glucoside fluorescence; series mostly up to 59.4 µM
# Potency is the fitted concentration of half-maximal effect.
row,Compound,Potency
1,CSc1ccccc1NC(=O)COc1ccccc1C,"inconclusive [activator, partial curve]"
2,CN(C)CCCN(C(=O)c1ccc(C(=O)c2ccccc2)cc1)c1nc2c(F)cccc2s1,"inconclusive [inhibitor, single point]"
3,Clc1ccc2nc(N3CCCCC3)[nH]c2c1,inactive
4,CNC(=O)/C(C#N)=C/c1c(N2CCCCCC2)nc2c(C)cccn2c1=O,"inconclusive [activator, partial curve]"
5,CCCN(C(=O)c1cc(-c2ccco2)nc2ccccc12)c1c(N)n(Cc2ccccc2)c(=O)[nH]c1=O,inactive
6,COc1cc(NS(=O)(=O)c2cc3[nH]c(=O)c(=O)[nH]c3cc2C)cc(OC)c1OC,"inconclusive [inhibitor, partial curve]"
7,O=c1c2ccccc2oc2ccccc12,"inconclusive [activator, single point]"
8,Cc1ccnc(NC(=O)c2cc(S(=O)(=O)N3CCCCC3)ccc2Cl)c1,inactive
9,CCCCNC(=O)CSc1nc(Cc2ccccc2)nc2ccccc12,"inconclusive [activator, partial curve]"
10,O=c1c(-c2cccs2)nc2cnc(Oc3cccc(Cl)c3)nc2n1C[C@H]1CCCO1,"inconclusive [activator, partial curve]"
11,O=c1oc2c(CN3CCOCC3)c(O)ccc2c2c1CCC2,"inconclusive [activator, single point]"
12,COC(=O)C1CN(C(=O)COc2ccc(Cl)c(C)c2)c2ccccc2O1 (stereo not drawn),"inconclusive [activator, partial curve]"
13,CCn1c(=O)c2c(n3c(=S)[nH]nc13)-c1ccccc1CC21CCCCC1,"inconclusive [activator, single point]"
14,CCOc1ccc(CCNC(=O)Nc2cccc(OC)c2)cc1OCC,"inconclusive [inhibitor, partial curve]"
15,Cn1c(C(=O)NCc2ccccn2)cc2c(=O)n3ccccc3nc21,"inconclusive [activator, full curve]"
16,CCC(C)c1ccc(O)c(N)c1 (stereo not drawn),inactive
17,N/C(=N\NC(=O)Nc1ccc(Cl)cc1)c1ccccn1,"inconclusive [activator, partial curve]"
18,O=C(Nc1ccc(F)cc1)N(CCCN1CCOCC1)Cc1cc2cc3c(cc2[nH]c1=O)OCO3,inactive
19,COc1ccc(C2CC(c3ccccc3)=NN2c2ccc(Cl)c(C(=O)O)c2)cc1 (stereo not drawn),"inconclusive [activator, single point]"
20,CCC1(C(=O)OC)CCc2c(cc(OC)c3ccccc23)C1=O (stereo not drawn),"inconclusive [activator, single point]"
21,CCC(C)NC(=O)CCC(=O)Nc1ccc2nc(N3CC(C)CC(C)C3)cc(C)c2c1 (stereo not drawn),"inconclusive [activator, single point]"
22,CCOC(=O)c1c(/N=C/c2cccc([N+](=O)[O-])c2O)sc2c1CCC2,inactive

row,Compound,Potency
1,COc1ccc(C)cc1NC(=O)c1cnc2n(c1=O)CCS2,"inconclusive [inhibitor, partial curve]"
2,CCc1ccc(/C=N/NC(=O)c2cc(-c3ccncc3)nc3ccccc23)s1,"inconclusive [inhibitor, partial curve, poor fit]"
3,CCCN1CCC(=O)N([C@H](CSc2ccc(C)cc2)Cc2ccccc2)CC1,"inconclusive [inhibitor, partial curve]"
4,Nc1nc2nc(-c3ccc(F)cc3)cc(C(F)(F)F)n2n1,"inconclusive [activator, partial curve]"
5,CC1CC(C)CN(c2oc(Cc3ccccc3)nc2C#N)C1 (stereo not drawn),"inconclusive [activator, single point]"
6,c1ccc(CCc2nc(-c3ccccc3)no2)cc1,inactive
7,CC(C)(C)c1csc(NC(=O)c2ccc(Br)o2)n1,"inconclusive [activator, single point]"
8,O=C(NCCN1CCOCC1)c1cc(-c2ccc(Cl)s2)nc2ccccc12,"inconclusive [activator, partial curve]"
9,C#CCOCCOCCOCCNc1nc(N2CCN(C(=O)CCCCCCCCCCNC(=O)[C@H](CO)n3cc(CCCSC)nn3)CC2)nc(N2CCN(C(=O)CCCCCCCCCCNC(=O)[C@H](CCCCN)n3cc(C[C@@H](C)CC)nn3)CC2)n1,"inconclusive [inhibitor, partial curve]"
10,NC1=NC[C@@H](Cc2ccc(O)cc2)N1CCc1cc(C(F)(F)F)cc(C(F)(F)F)c1,"inconclusive [inhibitor, partial curve]"
11,COc1cccc(N2CCN(c3c(C#N)c(C(F)(F)F)nn3C)CC2)c1,inactive
12,CCOC(=O)Nc1c2ccccc2nc2ccccc12,"inconclusive [activator, partial curve]"
13,O=C(Nc1cccc(-c2nc3ncccc3o2)c1)c1cc2ccccc2o1,"inconclusive [activator, partial curve]"
14,CCC(=O)Nc1cccc(C2=NN(c3ccccc3)C(c3ccc(OC)cc3)C2)c1 (stereo not drawn),"inconclusive [activator, partial curve]"
15,O=Cc1ccc(N2N=C(c3ccccc3)CC2c2ccccc2)cc1 (stereo not drawn),"inconclusive [activator, partial curve]"
16,CCCCC(=O)NC(c1ccco1)c1c(O)ccc2ccccc12 (stereo not drawn),"inconclusive [activator, partial curve]"
17,CCc1nc(C)cc2c1sc1ccccc12,inactive
18,COc1ccccc1OCCNc1cc(N2CCCCC2)ccc1[N+](=O)[O-],"inconclusive [activator, partial curve]"
19,CCn1nc(NC(=O)c2ccccc2)c2cc3cccc(C)c3nc21,inactive
20,O=C(O)c1cc(S(=O)(=O)Nc2cccc(Oc3ccccc3)c2)ccc1Br,"inconclusive [activator, single point]"
21,CCCC/C=C/C(NC(=O)c1cccs1)c1ccccc1 (stereo not drawn),"inconclusive [activator, partial curve]"

# Reference: PubChem BioAssay AID2101 (National Center for Advancing Translational Sciences (NCATS), 2009)
